# Experimental data as given in the supplement of paper PMC3334620.
# Over roughly 33,000 sequences, “E-score (-0.5 to 0.5)” has its median near -0.013; the highest 2% begin near 0.3. Some of the results follow.
# Biological target: T1, Msn1 (UniProt P22148)
# T1 sequence: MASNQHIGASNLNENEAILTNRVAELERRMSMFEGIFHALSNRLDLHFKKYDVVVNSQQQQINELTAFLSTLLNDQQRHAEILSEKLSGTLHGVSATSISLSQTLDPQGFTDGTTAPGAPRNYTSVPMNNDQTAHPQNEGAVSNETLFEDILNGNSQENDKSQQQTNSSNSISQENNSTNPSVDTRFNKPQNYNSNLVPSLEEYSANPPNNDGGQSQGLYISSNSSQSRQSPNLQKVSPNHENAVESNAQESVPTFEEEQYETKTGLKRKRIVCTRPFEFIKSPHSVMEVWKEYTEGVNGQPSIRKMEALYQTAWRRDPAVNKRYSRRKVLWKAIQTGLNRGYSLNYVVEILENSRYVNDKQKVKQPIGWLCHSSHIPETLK
# Assay: PBM E-score (8-mer binding enrichment) (E-score (-0.5 to 0.5)); higher = stronger / more preferred TF binding; most listed sequences are background and not binding sites
# Details: protein concentration: 200 nM; construct: GST-full length
# Procedure, shortened: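 For each ungapped eight-base word taken together with its reverse complement, the Universal PBM Analysis Suite assigned an E-score. Binding data came from GST-tagged yeast transcription factors, applied at about 100-200 nM, on universal all-10-mer Agilent arrays made double-stranded by primer extension. Fluorescent anti-GST marked bound protein, and scans were normalised with masliner.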
row,Sequence,PBM E-score
1,CCAATGGC,-0.208
2,AGTCAGCC,-0.209
3,CATGAATC,-0.0424
4,CCAGCATC,-0.148
5,AATCGTAA,-0.00853
6,GTGCTGTA,-0.0445
7,GAGACCGC,-0.217
8,CGCTTGTC,0.345
9,CTACCCCA,-0.137
10,AGCAGCGG,-0.0831
11,ACCGCTCT,-0.21
12,CTGATCTA,-0.0508
13,ACCAGTTG,-0.0585
14,AAATTCGT,0.256
15,AACTCTAT,0.0134
16,TCCCTGAA,0.011
17,CTAGTCTA,-0.0874
18,AATCTTTA,0.117
19,CCCGGTAA,0.00759
20,ACTACTAA,0.075
21,AAAAGCTC,0.0539
22,CGTGTAAA,-0.00711
23,CGCCACGC,-0.0875
24,CCTTGGTC,-0.194
25,CTATAGAG,-0.206

row,Sequence,PBM E-score
1,AACCAGGA,0.126
2,TAGCAAAA,0.124
3,CCTAGACC,-0.00875
4,CTACCATA,0.0846
5,GTGACCAC,-0.155
6,CCCCCCAA,-0.17
7,GAGGAACA,0.0319
8,CCCGTGGA,-0.152
9,CTGTGACC,-0.115
10,GCGCCTAC,-0.00952
11,CCGCCGTA,-0.0756
12,ACACGCAT,0.133
13,CACCAAAC,0.0872
14,ATTACTTG,0.114
15,ATGCGCTG,-0.0966
16,GATCCTTA,-0.107
17,GGGTGGGA,-0.0376
18,AGAAGGCG,-0.252
19,CTGGATCC,0.0578
20,GAACTCTC,-0.0211
21,AATACGGT,-0.0751
22,CTATACAC,-0.263
23,CCTGCCAA,-0.125
24,CTACTTGC,0.0456
25,AGAGGACG,-0.0239

row,Sequence,PBM E-score
1,TATCTCCA,0.0995
2,AGTGCTAG,-0.0691
3,ACCCCGAA,0.11
4,AAGTCCTA,0.409
5,AAACAGGG,0.09
6,ACGCTTGC,-0.222
7,AAAGACGC,0.111
8,ACGATACA,-0.00049
9,GTGAACAA,-0.0336
10,AATCTGTC,0.235
11,ACTACCCC,-0.236
12,ATGCGTTC,0.173
13,AACTAGCT,-0.0195
14,GAACGGCC,-0.0295
15,ATCGGAGA,0.0493
16,AACGCTGA,-0.0479
17,TGTAAAAA,0.148
18,CAGGATGA,-0.0423
19,CAGCGGCG,0.0902
20,CCTATCAA,0.187
21,CGCAGGAA,-0.206
22,TACTTAAA,-0.0209
23,CCTAGAAA,0.096
24,AGCAAAAG,0.0423
25,CTCGATAC,0.0646

row,Sequence,PBM E-score
1,AAGTGTAT,0.0747
2,AGTGCACG,-0.0746
3,CGATTGCC,-0.0308
4,CGCCGCAA,-0.00202
5,ACTTGACT,0.0663
6,CGCTCCTA,-0.11
7,ATCGCGTC,0.0368
8,AGGTTTTA,-0.0592
9,CAATATGC,-0.00156
10,AGTTCCGG,0.089
11,AACTACAA,0.117
12,GCCTTACC,-0.239
13,AATGATGT,0.242
14,TGAGTCCA,0.0938
15,GAAGCCTC,-0.204
16,GGTGCGGA,-0.047
17,GCACCGTA,-0.0148
18,ATTCGGAA,0.167
19,ACGAACCT,-0.0925
20,CGCACAAA,0.0557
21,ATCCAGCG,0.00311
22,AGGGTACT,-0.34
23,CTAGTATA,0.0125
24,AGACTCAT,-0.111
25,TAGACATA,0.41

row,Sequence,PBM E-score
1,ACTCAGAG,-0.0625
2,CGCGCTTC,-0.0305
3,CGGCTCCC,-0.17
4,ATAAGCTG,0.0198
5,CACCTGAC,-0.0449
6,ATTCGGGG,-0.0264
7,CAAGTGGC,0.0127
8,TCTCAAAA,0.17
9,GCCAAGAA,-0.0682
10,GGTTAGGA,-0.267
11,CGGAGCGA,0.204
12,AACCATAT,0.148
13,ATCGCGCC,0.0253
14,GGAGTAAA,0.142
15,AACAGCTT,0.029
16,GAACCTCA,0.0628
17,ACTGGTGG,-0.142
18,GGGTCGGA,-0.0868
19,CTATTACA,0.0558
20,AAGGGTCC,-0.253
21,GTGGACAA,0.468
22,CGAGTGTC,0.232
23,AACGTCCC,0.0192
24,TAAGCCCA,-0.231
25,GAAGTACA,0.102

row,Sequence,PBM E-score
1,AAAGGAGC,-0.0516
2,CACGCTAC,-0.109
3,CGATCGCC,0.158
4,CCAGCTAC,-0.236
5,ACTAGCCA,-0.0391
6,AAGACTCC,-0.149
7,AGCGCCTA,0.122
8,CAGCTTTA,0.00511
9,CGGGTGTC,-0.027
10,GCCGGATA,0.089
11,GGGTTTCA,-0.0088
12,GGTCCCGA,-0.0692
13,CGCGCTAC,0.0224
14,AAACTTGG,0.0927
15,ATAGCCTC,-0.0566
16,TGTCAACA,0.131
17,ACTCGGTG,-0.0874
18,CAGACAAC,0.212
19,ATGTAACC,-0.0865
20,CCTACTGA,-0.0568
21,ACACGGAG,0.00035
22,CTCTTTCC,-0.158
23,ATAGGGAC,0.274
24,AAAGCCTG,-0.146
25,GCGTTGCA,0.116

row,Sequence,PBM E-score
1,GCCTCGAA,0.0707
2,TAGGCCTA,-0.0564
3,ACTGGAGG,-0.213
4,AGATAGTG,-0.0237
5,GCTACCAA,-0.0555
6,GCCGCGCC,-0.021
7,ACTCTGGA,0.0585
8,CTGAATTC,0.0565
9,CCTAGAAG,-0.262
10,ATGTTCCA,0.0473
11,AGGCTTCA,-0.253
12,GCCAAGCC,-0.132
13,CCACCACG,-0.138
14,AACCTCAC,-0.16
15,CCAGTCTC,-0.195
16,AATGTGAA,0.0873
17,ACGGATTA,-0.0419
18,ACTGCGCT,-0.176
19,TCGTACCA,0.176
20,ATATCATC,0.123
21,CTAAACCA,-0.00916
22,GGCGATAC,-0.0673
